Some of the results follow.
Tests used:
Assay in all cases: glycan array binding signal (z-score within array); higher = stronger binding
Conditions in all cases: glycan notation: IUPAC condensed, linker removed
Fuc(a1-2)Gal = biological target: Fuc(a1-2)Gal
How it was run: (§1)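 Columns mapping to the same glycan were averaged after glycan names were converted to IUPAC-condensed notation. The data come from 3228 arrays in the Consortium for Functional Glycomics database, limited to those with an available protein sequence. Binding is reported as a within-array Z-score averaged across arrays of one protein sequence and across linkers.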

Fuc(a1-2)Gal(b1-3)GalNAc = biological target: Fuc(a1-2)Gal(b1-3)GalNAc
How it was run: as §1

[1] = biological target: Fuc(a1-2)Gal(b1-3)GalNAc(b1-3)Gal
How it was run: as §1

[2] = biological target: Fuc(a1-2)Gal(b1-3)GalNAc(b1-3)Gal(a1-4)Gal(b1-4)Glc
How it was run: as §1

[3] = biological target: Fuc(a1-2)Gal(b1-3)GalNAc(b1-4)[Neu5Ac(a2-3)]Gal(b1-4)Glc
How it was run: as §1

Fuc(a1-2)Gal(b1-3)GlcNAc = biological target: Fuc(a1-2)Gal(b1-3)GlcNAc
How it was run: as §1

[4] = biological target: Fuc(a1-2)Gal(b1-3)GlcNAc(b1-2)Man(a1-3)[Fuc(a1-2)Gal(b1-3)GlcNAc(b1-2)Man(a1-6)]Man(b1-4)GlcNAc(b1-4)GlcNAc
How it was run: as §1

[5] = biological target: Fuc(a1-2)Gal(b1-3)GlcNAc(b1-3)Gal(b1-4)Glc
How it was run: as §1

[6] = biological target: Fuc(a1-2)Gal(b1-3)GlcNAc(b1-3)[Gal(b1-4)[Fuc(a1-3)]GlcNAc(b1-6)]Gal(b1-4)Glc
How it was run: as §1

[7] = biological target: Fuc(a1-2)Gal(b1-3)[Fuc(a1-4)]GlcNAc
How it was run: as §1

[8] = biological target: Fuc(a1-2)Gal(b1-3)[Fuc(a1-4)]GlcNAc(b1-2)Man(a1-3)[Fuc(a1-2)Gal(b1-3)[Fuc(a1-4)]GlcNAc(b1-2)Man(a1-6)]Man(b1-4)GlcNAc(b1-4)GlcNAc
How it was run: as §1

Fuc(a1-2)Gal(b1-4)Glc = biological target: Fuc(a1-2)Gal(b1-4)Glc
How it was run: as §1

Fuc(a1-2)Gal(b1-4)Glc6S = biological target: Fuc(a1-2)Gal(b1-4)Glc6S
How it was run: as §1

Fuc(a1-2)Gal(b1-4)GlcNAc = biological target: Fuc(a1-2)Gal(b1-4)GlcNAc
How it was run: as §1

[9] = biological target: Fuc(a1-2)Gal(b1-4)GlcNAc(b1-2)Man(a1-3)[Fuc(a1-2)Gal(b1-4)GlcNAc(b1-2)Man(a1-6)]Man(b1-4)GlcNAc(b1-4)GlcNAc
How it was run: as §1

[10] = biological target: Fuc(a1-2)Gal(b1-4)GlcNAc(b1-3)Gal(b1-4)GlcNAc
How it was run: as §1

[11] = biological target: Fuc(a1-2)Gal(b1-4)GlcNAc(b1-3)Gal(b1-4)GlcNAc(b1-3)Gal(b1-4)GlcNAc
How it was run: as §1

[12] = biological target: Fuc(a1-2)Gal(b1-4)GlcNAc6S
How it was run: as §1

[13] = biological target: Fuc(a1-2)Gal(b1-4)[Fuc(a1-3)]GlcNAc
How it was run: as §1

[14] = biological target: Fuc(a1-2)Gal(b1-4)[Fuc(a1-3)]GlcNAc(b1-2)Man(a1-3)[Fuc(a1-2)Gal(b1-4)[Fuc(a1-3)]GlcNAc(b1-2)Man(a1-6)]Man(b1-4)GlcNAc(b1-4)GlcNAc
How it was run: as §1

[15] = biological target: Fuc(a1-2)Gal(b1-4)[Fuc(a1-3)]GlcNAc(b1-3)Gal(b1-4)[Fuc(a1-3)]GlcNAc
How it was run: as §1

[16] = biological target: Fuc(a1-2)Gal(b1-4)[Fuc(a1-3)]GlcNAc(b1-3)Gal(b1-4)[Fuc(a1-3)]GlcNAc(b1-3)Gal(b1-4)[Fuc(a1-3)]GlcNAc
How it was run: as §1

Fuc(a1-2)Gal6S(b1-4)Glc = biological target: Fuc(a1-2)Gal6S(b1-4)Glc
How it was run: as §1

[17] = biological target: Fuc(a1-2)Gal6S(b1-4)Glc6S
How it was run: as §1

[18] = biological target: Fuc(a1-2)Gal6S(b1-4)GlcNAc
How it was run: as §1

Fuc(a1-2)[Gal(a1-3)]Gal = biological target: Fuc(a1-2)[Gal(a1-3)]Gal
How it was run: as §1

[19] = biological target: Fuc(a1-2)[Gal(a1-3)]Gal(b1-3)GlcNAc
How it was run: as §1

[20] = biological target: Fuc(a1-2)[Gal(a1-3)]Gal(b1-3)GlcNAc(b1-2)Man(a1-3)[Fuc(a1-2)[Gal(a1-3)]Gal(b1-3)GlcNAc(b1-2)Man(a1-6)]Man(b1-4)GlcNAc(b1-4)GlcNAc
How it was run: as §1

[21] = biological target: Fuc(a1-2)[Gal(a1-3)]Gal(b1-4)Glc
How it was run: as §1

[22] = biological target: Fuc(a1-2)[Gal(a1-3)]Gal(b1-4)GlcNAc
How it was run: as §1

B1: DC-ASPGR (Homo sapiens), CLC10_HUMAN (protein)
chain: LDQNSKFQRDLVTLRTDFSNFTSNTVAEIQALTSQGSSLEETIASLKAEVEGFKQERQAVHSEMLLRVQQLVQDLKKLTCQVATLNNNASTEGTCCPVNWVEHQDSCYWFSHSGMSWAEAEKYCQLKNAHLVVINSREEQNFVQKYLGSAYTWMGLSDPEGAWKWVDGTDYATGFQNWKPGQPDDWQGHGLGGGEDCAHFHPDGRWNDDVCQRPYHWVCEAGLGQTSQESHVEPKSCDKTHTCPPCPAPELLGGPSVFLFPPKPKDTLMISRTPEVTCVVVDVSHEDPEVKFNWYVDGVEVHNAKTKPREEQFNSTYRVVSVLTVLHQDWLNGKEYKCKVSNKGLPSSIEKTISKAKGQPREPQVYTLPPSQEEMTKNQVSLTCLVKGFYPSDIAVEWESNGQPENNYKTTPPVLDSDGSFFLYSRLTVDKSRWQEGNVFSCSVMHEALHNHYTQK
glycan array binding signal (z-score) (Fuc(a1-2)Gal): -0.295 | glycan array binding signal (z-score) (Fuc(a1-2)Gal(b1-3)GalNAc): -0.222 | glycan array binding signal (z-score) [1]: -0.265 | glycan array binding signal (z-score) [2]: -0.221 | glycan array binding signal (z-score) [3]: 0.303 | glycan array binding signal (z-score) (Fuc(a1-2)Gal(b1-3)GlcNAc): -0.121 | glycan array binding signal (z-score) [4]: -0.074 | glycan array binding signal (z-score) [5]: -0.251 | glycan array binding signal (z-score) [6]: -0.117 | glycan array binding signal (z-score) [7]: -0.295 | glycan array binding signal (z-score) [8]: -0.04 | glycan array binding signal (z-score) (Fuc(a1-2)Gal(b1-4)Glc): -0.082 | glycan array binding signal (z-score) (Fuc(a1-2)Gal(b1-4)Glc6S): -0.118 | glycan array binding signal (z-score) (Fuc(a1-2)Gal(b1-4)GlcNAc): -0.165 | glycan array binding signal (z-score) [9]: -0.221 | glycan array binding signal (z-score) [10]: -0.205 | glycan array binding signal (z-score) [11]: -0.151 | glycan array binding signal (z-score) [12]: -0.177 | glycan array binding signal (z-score) [13]: 0.255 | glycan array binding signal (z-score) [14]: 0.094 | glycan array binding signal (z-score) [15]: -0.042 | glycan array binding signal (z-score) [16]: -0.173 | glycan array binding signal (z-score) (Fuc(a1-2)Gal6S(b1-4)Glc): -0.062 | glycan array binding signal (z-score) [17]: -0.21 | glycan array binding signal (z-score) [18]: -0.268 | glycan array binding signal (z-score) (Fuc(a1-2)[Gal(a1-3)]Gal): -0.287 | glycan array binding signal (z-score) [19]: -0.232 | glycan array binding signal (z-score) [20]: -0.142 | glycan array binding signal (z-score) [21]: -0.303 | glycan array binding signal (z-score) [22]: -0.222
